# In PubChem BioAssay AID1508642 (National Center for Advancing Translational Sciences (NCATS), 2021):
# In all, about 43,000 compounds went through this assay and about 200 (0.47%) were called active. Not shown: some 12% with an inconclusive outcome. Calls come from the whole dose curve; as a rule, active = well fitted cell-killing curve with a large enough effect; inconclusive = small, poorly fitted or top-dose-only effect, or effect the other way; inactive = flat fitted curve, though single readings scatter. The list shows a part of the results.
# Test: Cell viability qHTS assay in S16 Pmp22-F2sN cells; note: nearly all actives have a fitted effect of over 65% in size
# Settings: S16 Pmp22-F2sN Schwann cells (luciferase reporters placed in the Pmp22 gene) viability, CellTiter-Glo, 24 h; series mostly up to 57.5 µM; activity change, negative = cytotoxicity: at the top concentration
# Summary of the method: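 Luminescence from CellTiter-Glo, read by CCD camera after a 15 min room-temperature incubation, served as the viability signal. Reporter Schwann cells (S16 Pmp22-F2sN) had been treated with pin-transferred compounds for 24 h at 37C.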
# % is set by controls: 0 for no effect and ±100 for the full control effect.
row,Compound,"activity change, negative = cytotoxicity"
1,O=C(Cn1cc(SCc2ccc(C(F)(F)F)cc2)c2ccccc21)N1CCCC1,inactive: 3.08%
2,CCCOc1ccc(-c2nonc2NC(=O)c2oc3ccc(C)cc3c2C)cc1OCCC,inactive: 2.67%
3,CCOC(=O)N1CCC(NC(=O)c2cnn(-c3cccc(Cl)c3C)c2C2CCN(C(=O)OC(C)(C)C)CC2)CC1,inactive: 1.31%
4,COc1ccc(OC)c(NC(=O)c2cc(CN3CCCC3)on2)c1,inactive: -0.264%
5,O=C(CC1C(=O)OCCN1Cc1ccccc1)Nc1cccc(C(F)(F)F)c1 (stereo not given),inactive: -18.6%
6,CN1CCN(c2nc3c(S(=O)(=O)c4ccc(Br)cc4)nnn3c3ccsc23)CC1,inactive: -14.9%
7,Oc1ccc(Cl)cc1C1=Nc2ccccc2N=C(c2cccc(Br)c2)C1,inactive: 2.45%
8,COc1cccc(CN2CCc3nc(N4CCN(c5ncccn5)CC4)ncc3C2)c1,inactive: -27.8%
9,CCc1sc(Nc2cccc(Cl)c2C)nc1-c1cc2cccc(OC)c2oc1=O,inactive: -8.97%
10,Cc1cccc(-c2nc3c4ccccc4nc(NCc4ccc(Cl)cc4)n3n2)c1,inactive: 4.76%
11,CC(C)Cn1c(=O)c2sccc2n2c(CCCC(=O)NCc3ccccc3Cl)nnc12,inactive: 4.49%
12,COc1ccc(NC(=O)CSc2oc(-c3ccco3)nc2S(=O)(=O)c2ccc(Br)cc2)c(OC)c1,inactive: -2.77%
13,CCc1ccc2oc(-c3cc(NC(=O)C(C)C)cc(C)c3O)nc2c1,inactive: 11.8%
14,Cc1cc(C)cc(OCCCn2c(CCNC(=O)C3CCCCC3)nc3ccccc32)c1,inactive: -18.8%
15,COc1ccc(CCNC(=O)CCCn2c(=O)c3ccccc3n(Cc3c(C)cc(C)cc3C)c2=O)cc1OC,inactive: 12.9%
16,CCC(=O)N1c2ccc(S(=O)(=O)N3CCC(C)CC3)cc2CC1C (stereo not given),inactive: 8.76%
17,CCC(=O)Nc1ccc(-c2nnc3c4ccccc4c(C)nn23)cc1,inactive: 0.475%
18,Cc1ccc(NC(=O)CSc2nc(=O)n(CCCN(C)C)c3c2CCC3)cc1F,inactive: 12.6%
19,CCCc1ccc(S(=O)(=O)N2CCC(Oc3ccc(-n4cnnn4)cc3)CC2)cc1,inactive: -15.9%
20,CNC(=O)c1ccc(Nc2nnc(-c3ccc(C)c(S(=O)(=O)N(C)C)c3)c3ccccc23)cc1,inactive: 17.5%

row,Compound,"activity change, negative = cytotoxicity"
1,CCOC(=O)c1[nH]c(C)c(CCC(=O)NCc2ccccc2Cl)c1C,inactive: -4.96%
2,N#Cc1ccc(CSc2nc3c(c(=O)[nH]2)CCC3)cc1,inactive: -1.38%
3,COc1cc(NC(=O)CSc2nc(-c3ccc(C)cc3)nc3c2Cc2ccccc2O3)cc(OC)c1,inactive: 18.2%
4,O=C(CC1C(=O)OCCN1Cc1ccccc1)Nc1ccc(F)cc1 (stereo not given),inactive: -19.4%
5,Cc1ccc(C)c(NC(=O)Cn2cc(C(=O)c3ccc(Cl)cc3)c(=O)c3ccc(C)nc32)c1,inactive: 0.801%
6,Cc1ccc(S(=O)(=O)c2nc(-c3cccc(C)c3)oc2N2CCN(c3ccccc3)CC2)cc1,inactive: 1.5%
7,CCCSc1ncc(Cl)c(C(=O)Nc2nc3ccc(OCC)cc3s2)n1,inactive: 9.48%
8,Cc1nc2nc(SCC(=O)NCCc3ccc(Cl)cc3)nn2c(C)c1Cc1ccccc1,inactive: 1.62%
9,COC(=O)c1sc2cccc(F)c2c1S(=O)(=O)N1CCN(c2ccc(F)cc2)CC1,inactive: 0.827%
10,Cc1ccc(CNC(=O)c2ccc3c(=O)n(-c4ccccc4)c(=O)[nH]c3c2)cc1,inactive: 13.9%
11,CCOC(=O)CC1c2cc(OCC)c(OCC)cc2CCN1C(=O)Nc1cccc(Cl)c1 (stereo not given),inactive: 5.08%
12,Cc1cccn2c(=O)c3cc(C(=O)NCc4ccccc4)c(=N)n(CCOCCO)c3nc12,inactive: -1.37%
13,CCc1ccccc1NC(=O)CSc1nc(-c2ccccc2OC)nc2c1Cc1c(CO)cnc(C)c1O2,inactive: -13.5%
14,COC(=O)C(CCSC)NC(=O)c1cc2c(n(-c3ccc(C)cc3)c1=O)CC(C)(C)CC2=O (stereo not given),inactive: -0.548%
15,Cc1ccc2c(c1)cc1c(=O)n(CC(=O)NC3CCCCC3)nc(C)n12,inactive: 5.25%
16,COc1ccc(CNC(=O)c2cc3c(s2)-c2ccccc2OC3)cc1,inactive: 18%
17,CCC(C)NC(=O)C(=O)Nc1c2c(nn1-c1ccccc1)CS(=O)(=O)C2 (stereo not given),inactive: -2.15%
18,CC(C)CCNC(=O)C1CCC(Cn2c(=O)c3sccc3n(CC(=O)NC(C)C)c2=O)CC1 (stereo not given),inactive: -5.05%
19,O=C(Cn1c(=O)n(-c2ccc(F)c(Cl)c2)c(=O)c2sc3ccccc3c21)NC1CCCC1,inactive: 3.3%
20,Cc1ccc(-n2c(=O)c3oc4ccccc4c3n(Cc3ccccc3F)c2=O)cc1C,inactive: 0.648%

row,Compound,"activity change, negative = cytotoxicity"
1,O=C(CN1C(=O)CCSc2ccccc21)Nc1ccccc1F,inactive: 17.3%
2,COc1ccc(NC(=O)CSc2nc3c(oc4ccccc43)c(=O)n2-c2ccc(C)c(C)c2)cc1,inactive: 5.7%
3,CCOC(=O)c1c(NC(C)=O)c2c3c(sc2n1Cc1nc(-c2ccccc2C)oc1C)CCCC3,inactive: 1.62%
4,O=C(c1ccc2c(c1)N(Cc1ccc(Cl)cc1)C(=O)c1ccccc1S2(=O)=O)N1CCCCC1,inactive: -2.67%
5,CC1CN(C(=O)CCC(=O)NCc2ccc(F)cc2)c2cc(Cl)ccc2O1 (stereo not given),inactive: -2.39%
6,Cc1c(C)n(C)c2ccc(C(=O)N3CCN(c4ccccc4)CC3)cc12,inactive: -4.3%
7,Cc1c(Cl)cccc1NC(=O)C(C)n1nnc2sc3c(c2c1=O)CCCC3 (stereo not given),inactive: -1.56%
8,CSc1ncc(Cl)c(C(=O)N(Cc2ccc(N(C)C)cc2)Cc2ccco2)n1,inactive: -22%
9,Cc1cc(C)cc(NC(=O)Cn2c(=O)c3ccccc3n3nncc23)c1,inactive: 2.16%
10,CCOC(=O)c1ccccc1NC(=O)c1sc2nc3n(c(=O)c2c1C)CCCC3,inactive: 2.71%
11,Cc1ccc2c(=O)cc(C(=O)Nc3ccc(S(=O)(=O)N4CCCCCC4)cc3)oc2c1C,inactive: 3.15%
12,CCc1ccc(CNC(=O)CN2C(=O)c3cccnc3Oc3ccc(C)cc32)cc1,inactive: 10.3%
13,CC(CC(=O)Nc1ccc(Br)cc1F)S(=O)(=O)c1ccc2c(c1)NC(=O)CO2 (stereo not given),inactive: -14.2%
14,CCOC(=O)C1CCN(C(=O)C2CCN(C3=NS(=O)(=O)C(c4ccc(C)c(C)c4)=C3C)CC2)CC1,inactive: 5.8%
15,CCc1ccc(Cc2cnc(NC(=O)c3ccc4c(c3)CC(c3ccccc3)OC4=O)s2)cc1 (stereo not given),inactive: 8.85%
16,Cc1cccc(C2CC(=O)Oc3c2c(=O)n(C)c2ccccc32)c1 (stereo not given),inactive: 2.11%
17,Cc1ccc(CNC(=O)Cn2cc(C(=O)c3ccc(F)cc3)c(=O)c3ccc(C)nc32)cc1,inactive: -5.97%
18,COc1cc(C(=O)N2CCN(CCc3ccccn3)CC2)cc(OC)c1OC,inactive: -0.521%
19,CCn1ccc2cc(S(=O)(=O)N3CCC(C(=O)NCCc4ccc(C)cc4)CC3)ccc21,inactive: -1.9%
20,COc1ccc(NC(=O)CSCc2cnn(-c3ccccc3)c2-n2cccc2)cc1,inactive: -13.6%
